# Measured values from a collection of fitness landscapes (doi:10.1016/j.celrep.2020.107928).
# Over roughly 81,000 sequences, “one-hybrid fitness for binding parS DNA” has its median near -0.17; the highest 2% begin near 0.51. Some of the results follow.
# B1: Caulobacter ParB omega fusion; a variant is named by its letters at X, in order, B8GW30 (parent)
# chain: MESVVVGEPGMSEGRRGLGRGLSALLGEVDAAPAQAPGEQLGGSREAPIEILQRNPDQPRRTFREEDLEDLSNSIREKGVLQPILVRPSPDTAGEYQIVAGERAWRAAQRAGLKTVPIMVRELDDLAVLEIGIIENVQRADLNVLEEALSYKVLMEKFERTQENIAQTIGKSXSHVANXMRLLXLPDEVQSYLVSGELTAXHARAIAAAADPVALAKQIIEGGLSVRETEALARKAPNLSAGKSKGGRPPRVKDTDTQALESDLSSVLGLDVSIDHRGSTGTLTITYATLEQLDDLCNRLTRGI
# Variants of: B1
# Assay: one-hybrid fitness for binding parS DNA (scaled: cognate 1, non-cognate 0); higher = stronger binding
# Conditions: with parS DNA site
# Summary of the method: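 The reporter was HIS3, with the binding site 19 bp from the promoter, in E. coli USO used for bacterial one-hybrid selection of Caulobacter ParB libraries with four specificity codons randomised. Growth was on M9 lacking histidine, with 0.1 mM IPTG and 5 mM 3-AT, for 48 hours at 37°C. Illumina sequencing covered plasmids before and after selection; three replicate libraries were pooled and variants with under 10 reads dropped. A fitness score is the log change in variant-to-wild-type read ratio, rescaled to the cognate and non-cognate references.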
row,Variant,one-hybrid fitness for binding parS DNA
1,REMM,≤ 0.2
2,NLFL,≤ 0.2
3,LQDE,≤ 0.2
4,QYGM,≤ 0.2
5,LLSE,≤ 0.2
6,SCPS,≤ 0.2
7,YQYT,≤ 0.2
8,YPSC,≤ 0.2
9,YFWG,≤ 0.2
10,AFWA,≤ 0.2
11,SVMS,≤ 0.2
12,HLYC,≤ 0.2
13,ASMW,≤ 0.2
14,HHIQ,≤ 0.2
15,NPCR,≤ 0.2
16,DICG,≤ 0.2
17,TDSQ,≤ 0.2
18,ITKR,≤ 0.2
19,YCQV,≤ 0.2
20,PWST,≤ 0.2
21,VLNS,≤ 0.2
22,GSMR,≤ 0.2
23,TDVD,≤ 0.2
24,TQPV,≤ 0.2
25,QQMG,≤ 0.2

row,Variant,one-hybrid fitness for binding parS DNA
1,KTKC,≤ 0.2
2,QLPD,≤ 0.2
3,EWKS,≤ 0.2
4,QPNA,≤ 0.2
5,FLPL,≤ 0.2
6,WEYT,≤ 0.2
7,SKNL,≤ 0.2
8,PVPI,≤ 0.2
9,QYMT,≤ 0.2
10,RRNQ,≤ 0.2
11,PFNS,≤ 0.2
12,RFCP,≤ 0.2
13,DPLK,≤ 0.2
14,RMAH,0.282
15,QFKR,≤ 0.2
16,EHVC,≤ 0.2
17,GCAR,≤ 0.2
18,KRKW,≤ 0.2
19,HRSI,≤ 0.2
20,SVST,≤ 0.2
21,PQSC,≤ 0.2
22,HVPR,≤ 0.2
23,TSDL,≤ 0.2
24,YHHT,≤ 0.2
25,IALS,≤ 0.2

row,Variant,one-hybrid fitness for binding parS DNA
1,TQKC,≤ 0.2
2,KSTL,≤ 0.2
3,GYGY,≤ 0.2
4,KPPM,≤ 0.2
5,SQGA,≤ 0.2
6,QWTY,≤ 0.2
7,YILS,≤ 0.2
8,TLHT,≤ 0.2
9,VIWG,≤ 0.2
10,PQMW,≤ 0.2
11,GPGN,≤ 0.2
12,NIDM,≤ 0.2
13,RLRM,0.376
14,HWPE,≤ 0.2
15,SVVF,≤ 0.2
16,RNQV,≤ 0.2
17,CSHP,≤ 0.2
18,PMRG,≤ 0.2
19,RKMY,0.386
20,DYYM,≤ 0.2
21,RKLT,0.856
22,AFMR,≤ 0.2
23,KCMR,≤ 0.2
24,DCQR,≤ 0.2
25,CELM,≤ 0.2

row,Variant,one-hybrid fitness for binding parS DNA
1,GNDD,≤ 0.2
2,SLPM,≤ 0.2
3,QPGS,≤ 0.2
4,IMEV,≤ 0.2
5,RRAS,0.652
6,GTHP,≤ 0.2
7,LHLM,≤ 0.2
8,RSPK,≤ 0.2
9,RMNF,0.237
10,TMSL,≤ 0.2
11,ASIL,≤ 0.2
12,KLNR,≤ 0.2
13,RDPS,≤ 0.2
14,MDEC,≤ 0.2
15,TTFC,≤ 0.2
16,TMQR,≤ 0.2
17,PDLM,≤ 0.2
18,FDLM,≤ 0.2
19,DART,≤ 0.2
20,HGLF,≤ 0.2
21,QVKF,≤ 0.2
22,CKHT,≤ 0.2
23,ISYG,≤ 0.2
24,AQMG,≤ 0.2
25,IYRY,≤ 0.2

row,Variant,one-hybrid fitness for binding parS DNA
1,TDLC,≤ 0.2
2,QRSP,≤ 0.2
3,MSYV,≤ 0.2
4,FGRC,≤ 0.2
5,MPTR,≤ 0.2
6,HLPD,≤ 0.2
7,QSMN,≤ 0.2
8,TYRK,≤ 0.2
9,RDRV,≤ 0.2
10,LAQV,≤ 0.2
11,THHM,≤ 0.2
12,LCDV,≤ 0.2
13,KFNR,≤ 0.2
14,QWAK,≤ 0.2
15,CRSQ,≤ 0.2
16,VQTI,≤ 0.2
17,KKLN,≤ 0.2
18,NDRD,≤ 0.2
19,SSET,≤ 0.2
20,LLVY,≤ 0.2
21,MACT,≤ 0.2
22,GSWY,≤ 0.2
23,CLKH,≤ 0.2
24,EYAP,≤ 0.2
25,HLCR,≤ 0.2

row,Variant,one-hybrid fitness for binding parS DNA
1,NETL,≤ 0.2
2,PWNS,≤ 0.2
3,QTAS,≤ 0.2
4,NSGN,≤ 0.2
5,GWMY,≤ 0.2
6,KWNS,≤ 0.2
7,ERLL,≤ 0.2
8,CTNT,≤ 0.2
9,SPLW,≤ 0.2
10,RNKN,0.354
11,QVST,≤ 0.2
12,VNIG,≤ 0.2
13,NRNN,≤ 0.2
14,VHRH,≤ 0.2
15,WYHM,≤ 0.2
16,SHNL,≤ 0.2
17,WGTF,≤ 0.2
18,RLAP,≤ 0.2
19,HLAF,≤ 0.2
20,RNGQ,≤ 0.2
21,QESF,≤ 0.2
22,VESI,≤ 0.2
23,TETV,≤ 0.2
24,ITFI,≤ 0.2
25,TYMP,≤ 0.2

row,Variant,one-hybrid fitness for binding parS DNA
1,RMIK,≤ 0.2
2,PFRA,≤ 0.2
3,GGQP,≤ 0.2
4,YEHR,≤ 0.2
5,IYAT,≤ 0.2
6,SKRM,≤ 0.2
7,HDFS,≤ 0.2
8,PKKV,≤ 0.2
9,VTIL,≤ 0.2
10,NRIQ,≤ 0.2
11,RQKG,0.939
12,QLAW,≤ 0.2
13,SMTA,≤ 0.2
14,WHLM,≤ 0.2
15,GAAV,≤ 0.2
16,AHWG,≤ 0.2
17,EYNS,≤ 0.2
18,TIDA,0.235
19,TCAH,≤ 0.2
20,DCAF,≤ 0.2
21,NTYC,≤ 0.2
22,GIRS,≤ 0.2
23,QDIE,≤ 0.2
24,RFKM,0.357
25,INAM,≤ 0.2

row,Variant,one-hybrid fitness for binding parS DNA
1,QNHN,≤ 0.2
2,FWMS,≤ 0.2
3,QNDL,≤ 0.2
4,RHLE,≤ 0.2
5,GRNW,≤ 0.2
6,SVSN,≤ 0.2
7,QAAA,≤ 0.2
8,KMDF,≤ 0.2
9,IRTY,≤ 0.2
10,RARK,≤ 0.2
11,PEHR,≤ 0.2
12,PPWY,≤ 0.2
13,LDYR,≤ 0.2
14,GYYT,≤ 0.2
15,RLFQ,≤ 0.2
16,LVDG,≤ 0.2
17,DHDN,0.256
18,NYRH,≤ 0.2
19,SYNI,≤ 0.2
20,AFNC,≤ 0.2
